Source: PubChem BioAssay (NCI)
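Test compounds were applied to cells in 96-well plates for 48 hours at 5 doses. GI50: concentration for 50% inhibition of growth.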 For part of its entries the source gives two or more results. This list holds those alone. The source may hold further records. A record mostly stands for its own series of concentrations, not given here; a value can be the end of its range.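 Definition used: TGI = concentration required for complete inhibition of growth.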

Tests used:
Experiment in all cases: NCI tumour cell line growth inhibition, 48 h
[1] = tested on: SR leukemia
[2] = tested on: SK-MEL-5 melanoma
[3] = tested on: MOLT-4 leukemia
[4] = tested on: SF-295 CNS
[5] = tested on: CCRF-CEM leukemia
[6] = tested on: HL-60(TB) leukemia
[7] = tested on: NCI-H460 lung
[8] = tested on: SF-539 CNS
[9] = tested on: RPMI-8226 leukemia
[10] = tested on: TK-10 renal
[11] = tested on: OVCAR-8 ovarian
[12] = tested on: IGROV1 ovarian
[13] = tested on: SN12C renal
[14] = tested on: M14 melanoma
[15] = tested on: SF-268 CNS
[16] = tested on: 786-0 renal
[17] = tested on: RXF 393 renal
[18] = tested on: HCT-116 colon
[19] = tested on: HCC-2998 colon
[20] = tested on: COLO 205 colon
[21] = tested on: NCI-H226 lung
[22] = tested on: U251 CNS
[23] = tested on: OVCAR-4 ovarian
[24] = tested on: UACC-62 melanoma
[25] = tested on: SK-MEL-28 melanoma
[26] = tested on: MALME-3M melanoma
[27] = tested on: OVCAR-3 ovarian
[28] = tested on: SNB-75 CNS
[29] = tested on: HOP-62 NSCLC

CC[C@H](C)[C@@H]([C@@H](CC(=O)N1CCC[C@H]1[C@H](OC)[C@@H](C)C(=O)NCCc1ccccc1)OC)N(C)C(=O)C(NC(=O)[C@H](C(C)C)N(C)C)C(C)C (stereo partly specified)
TGI [1]: 1.12 nM and > 10 µM
TGI [2]: 0.384 nM and 3.3 µM
TGI [3]: 5.33 nM and > 10 µM
TGI [4]: 1.52 nM and 1.2 µM
TGI [5]: 2.1 nM and > 10 µM
TGI [6]: 0.448 nM and > 10 µM
TGI [7]: 2.23 nM and > 10 µM
TGI [8]: 1.96 nM and > 10 µM
TGI [9]: 3.04 nM and 8.51 µM

COc1cccc2c1C(=O)c1c(O)c3c(c(O)c1C2=O)C[C@@](O)(C(=O)CO)CC3OC1CC(N)C(OC2CCCCO2)C(C)O1 (stereo partly specified)
TGI [10]: 816 nM and 12.1 µM
TGI [1]: 1.98 nM and 2.32 µM
TGI [11]: 641 nM and 8.58 µM
TGI [12]: 375 nM and 14.3 µM
TGI [13]: 146 nM and 15.2 µM
TGI [14]: 225 nM and 4.96 µM
TGI [15]: 222 nM and 4.51 µM
TGI [16]: 138 nM and 13.4 µM
TGI [17]: 276 nM and 5.87 µM
GI50 [18]: 17 nM and 246 nM
TGI [19]: 466 nM and 24.7 µM
TGI [20]: 211 nM and 6.15 µM
GI50 [21]: 15.2 nM and 687 nM
TGI [21]: 78.8 nM and 2.37 µM
TGI [5]: 65.2 nM and 2.59 µM
TGI [6]: 9.51 nM and 3.75 µM
GI50 [7]: < 1 nM and 36.1 nM
TGI [22]: 1.04 µM and 50 µM
TGI [23]: 279 nM and 10.7 µM
TGI [24]: 134 nM and 8.34 µM
TGI [25]: 312 nM and 6.6 µM
TGI [26]: 151 nM and 2 µM
TGI [27]: 464 nM and 13.8 µM
TGI [8]: 32 nM and 1.76 µM
TGI [28]: 93 nM and 2.35 µM
TGI [9]: 63.5 nM and 10.6 µM
TGI [29]: 41.1 nM and 3.18 µM
